Hit rate of the full screen: of about 7,900 compounds, about 400 (5.1%) showed an effect of 50% or more. This is one part of the list.

This experiment deals with Parkinson's disease protein 7 (PARK7/DJ1) (human, UniProt Q99497). In words: primary screen, percent inhibition; read as competition with a fluorescent probe by fluorescence polarization; higher = more effect of the substance. The conditions noted are these: 100 µM. As for the experimental part: The screen was conducted using the conditions as described above in 1536-well plates (Corning 3724) with a reaction volume of 8 μL per well. The compound library containing 7887 covalent fragments was purchased at Enamine Ltd. and received as 100 mM DMSO stocks in 384 well LDV Echo plates (Labcyte LP-0200). Stock solutions of 0.26 μM PARK7 and 80 nM JYQ-107 were prepared. Using a Labcyte Echo550 acoustic dispenser, 8 nL of the DMSO stock solution of the library compounds was transferred from the source plates into the empty 1536-well screening plates to obtain a 100 μM final compound concentration. Next, PARK7 (6 μL, final concentration 0.2 μM) was dispensed using a Biotek MultiflowFX liquid dispenser and incubated for 2 h, followed by dispensing the probe JYQ-107 (2 μL, final concentration 20 nM). After 2 h incubation, the FP signal was recorded on a BMG Labtech PHERAstar plate reader (λex/em 480/520 nm). The relative loss of FP signal compared with reference controls was used to calculate the remaining enzyme activity.
Chain of Parkinson's disease protein 7 (PARK7/DJ1) (Q99497 whole entry, looked up, the tested form may be a part): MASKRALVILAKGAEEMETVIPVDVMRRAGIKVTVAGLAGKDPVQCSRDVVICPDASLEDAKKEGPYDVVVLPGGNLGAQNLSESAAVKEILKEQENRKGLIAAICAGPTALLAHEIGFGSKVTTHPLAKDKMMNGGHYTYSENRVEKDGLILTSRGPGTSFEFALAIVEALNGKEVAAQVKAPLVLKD
Take `Cc1ccc(CNC(=O)CCl)cc1`: the Inhibition % was determined as 1%.

For `COc1ccc(S(=O)(=O)n2ccc(C)n2)c(C)c1C`, the Inhibition % stood at 6.27%.

Turning to `C#CC(=O)c1ccc(C(F)(F)F)cc1`, the Inhibition % is given as 0.878%.

In the case of `Cc1ccc(-c2nc(C#N)c(NC3CC3)o2)cc1`, the Inhibition % was determined as 5.44%.

For the molecule `C=CC(=O)N1CCCC(CNC(=O)c2ccccc2)C1` (stereo not shown), the Inhibition % is on record as 9.05%.

`CN(C)C(=O)Sc1ccc(CO)cc1`: the Inhibition % was 5.66%.

In the case of `O=S(=O)(C=Cc1ccccc1Cl)Nc1cccnc1`, the Inhibition % is listed as 9.53%.

`CN(c1ccccc1)S(=O)(=O)c1ccccc1S(=O)(=O)F`: the Inhibition % is listed as 96.6%.

Turning to `CCNC(=O)C12CC3CC(CC(Cl)(C3)C1)C2`, the Inhibition % stood at 7.43%.

With `C=CC(=O)NC1CC12CCCc1ccccc12` (stereo not shown), the Inhibition % was -3.23%.

Take `C=CC(=O)N1CCC(c2nc(C)c(C)s2)CC1`: the Inhibition % stood at 4.4%.

For the molecule `C=CC(=O)N1CCc2ccccc2C1CC` (stereo not shown), the Inhibition % was -1.28%.

In the case of `C=CC(=O)N(C)CCN1CCCS1(=O)=O`, the Inhibition % is recorded as 12.4%.

In the case of `O=C(CCl)N(Cc1cccs1)C1CCS(=O)(=O)C1` (stereo not shown), the Inhibition % is 5.82%.

Consider `CC1CC(N(C)Cc2nc3c(s2)CCCC3)C(=O)O1` (stereo not shown), for which the Inhibition % is recorded as 8.2%.

For `CC1Cc2cc(C(=O)CCl)ccc2N1S(C)(=O)=O` (stereo not shown), the Inhibition % was determined as 6.9%.

Consider `O=C(C=Cc1ccc2ccccc2n1)N1CCCC1CO` (stereo not shown), for which the Inhibition % is listed as 7.06%.

For the molecule `CC(NC(=O)c1ccccc1NC(=O)CCl)c1ccccc1` (stereo not shown), the Inhibition % was determined as 6.77%.

For the molecule `Cc1cc(NC(=O)CCl)no1`, the Inhibition % is 3.42%.

`CCOCCCn1c(S)nc2c(C)cccc2c1=O`: the Inhibition % is reported as 5.79%.

For `C=CC(=O)N[C@H](C(=O)N1CCCC1)C(C)C`, the Inhibition % is given as -4.2%.

Take `C=CC(=O)N1CCC(c2ccco2)CC1`: the Inhibition % was 8.73%.

Turning to `C=CC(=O)Nc1cc(C)on1`, the Inhibition % is listed as 10.6%.

Take `C=CC(=O)N1CCOCC1c1nc(C)cs1` (stereo not shown): the Inhibition % was 8.04%.

As to `CCC(=O)N1CCC(Nc2ccc(C#N)nc2)C1` (stereo not shown), the Inhibition % came to 3.54%.

With `O=C(CCl)N1CCC2(CC1)OCCO2`, the Inhibition % is 10.3%.

As to `C=CC(=O)N1CCC(OCc2ccccc2C)CC1`, the Inhibition % came to 5.28%.

In the case of `C=CC(=O)NC[C@H]1CC[C@H](c2ccccc2)O1`, the Inhibition % is 2.73%.

On to `CC1(C)OB(c2ccc(OCCc3ccccn3)cc2)OC1(C)C`, for which the Inhibition % was -0.0918%.

Take `CC1(C)OB(c2ccc([N+](=O)[O-])cc2F)OC1(C)C`: the Inhibition % is 8.59%.

On to `CC(O)c1cnc(C2OCCO2)s1` (stereo not shown), for which the Inhibition % is on record as 7.39%.

As to `Cl.O=C(CCl)NCc1ccc(CN2CCCC2)cc1`, the Inhibition % came out at 10.4%.

Regarding `C=CC(=O)NCC(C)(C)CC1CCOCC1`, the Inhibition % came out at 3.79%.

Turning to `CN(Cc1nccn1CC(F)(F)F)c1ccc(C#N)nc1`, the Inhibition % is 12.1%.

Take `Cc1nc(C=CC(=O)N2CCNC(C)C2)cs1.Cl.Cl` (stereo not shown): the Inhibition % came to 17.5%.

Turning to `C=CC(=O)Nc1c(C)n(C)n(-c2ccccc2)c1=O`, the Inhibition % is reported as 5.49%.

With `C=CC(=O)Nc1cnc(C(C)(C)C)nc1`, the Inhibition % was 9.19%.

For `CC(C)(C)OC(=O)N1C2CCC1CC(=CB1OC(C)(C)C(C)(C)O1)C2`, the Inhibition % was -1.71%.

For `CCOc1ccc(Cl)cc1S(=O)(=O)n1ccnc1CC`, the Inhibition % is recorded as 4.44%.

`COCCNc1oc(-c2ccccc2)nc1C#N`: the Inhibition % came out at 3.4%.

Take `C=CC(=O)N1CCN(Cc2nccn2C(F)F)CC1`: the Inhibition % amounted to 13.9%.

In the case of `CNCc1cccc(B2OC(C)(C)C(C)(C)O2)c1.Cl`, the Inhibition % is 13.9%.

Take `CCCOc1cc(C)c(C)cc1S(=O)(=O)n1cccn1`: the Inhibition % is given as 2.32%.

Consider `C=CC(=O)NCC1CC(C)(C)OC1(C)C` (stereo not shown), for which the Inhibition % is reported as 4.78%.

For `CC1(C)OB(c2ccc(OC(F)(F)C(F)(F)F)cc2)OC1(C)C`, the Inhibition % is given as 2.49%.

As to `N#CC(=Cc1cccc(-c2ccncc2)c1)C(N)=O`, the Inhibition % is 11.9%.

On to `N#Cc1nc(-c2ccccc2)oc1N1CCOCC1`, for which the Inhibition % was 2.55%.

Take `COc1ccc(CS(=O)(=O)F)cc1`: the Inhibition % stood at 88.4%.

As for `CN(Cc1ccccc1Cl)C(=O)n1ccnc1`, the Inhibition % was 2.68%.

With `OB(O)c1ccc(OCc2ccc(Cl)cc2)cc1`, the Inhibition % is on record as -0.814%.

In the case of `C=CC(=O)NC1COc2cc(F)cc(F)c21` (stereo not shown), the Inhibition % came to 3.21%.

For `O=C1OCCC1Sc1nnc(C2CCCCC2)o1` (stereo not shown), the Inhibition % worked out at 66.7%.

`CCOC(=O)c1cncc(B2OC(C)(C)C(C)(C)O2)c1`: the Inhibition % is given as 1.29%.

As for `COc1cccc(NC(=O)CCCl)c1`, the Inhibition % was found to be 11.2%.

Take `C=CC(=O)NC[C@@H]1C=C[C@H]2C[C@@H]1CO2` (racemic): the Inhibition % worked out at 7.23%.

For `C=CC(=O)N1CCCN(CCOC)C(=O)C1`, the Inhibition % is reported as 8.67%.

Consider `C=CC(=O)NCc1cccc(N2CCCC2=O)c1`, for which the Inhibition % was found to be 0.0231%.

For `CC1(C)OC1c1ccccc1` (stereo not shown), the Inhibition % is given as 13.4%.

As to `CC1(C)OB(c2ccc(C(F)F)nc2)OC1(C)C`, the Inhibition % was -1.1%.

In the case of `CC1CCN(C(=O)CCl)c2ccccc2S1` (stereo not shown), the Inhibition % was 6.09%.

Turning to `C=CC(=O)N1CCC[C@H](CN2CCOCC2)C1`, the Inhibition % is 10.5%.

Take `COCC1(C(=O)Nc2cccc(S(=O)(=O)F)c2)CCCC1`: the Inhibition % came out at 94.3%.

In the case of `CC(CC(O)c1ccco1)Nc1ccc(C#N)nc1` (stereo not shown), the Inhibition % was determined as 9.23%.

In the case of `Cc1cc(C=C(C#N)C(=O)O)c(C)n1CC1CCCO1` (stereo not shown), the Inhibition % was found to be 11.7%.

On to `CCOc1cc(S(=O)(=O)n2ccnc2CC)ccc1Cl`, for which the Inhibition % is recorded as 6.87%.

With `CC(C)Oc1cc(CNC(=O)c2cccnc2S)ccn1`, the Inhibition % was 11.9%.

Take `CC1c2ccsc2CCN1C(=O)C=Cc1cnn(C)c1` (stereo not shown): the Inhibition % is listed as 13.8%.

On to `CCc1nccn1S(=O)(=O)c1ccc(Cl)c(OC)c1`, for which the Inhibition % is 8.11%.

As for `N#Cc1ccc(NC2CC(=O)N(C3CC3)C2)cn1` (stereo not shown), the Inhibition % was 4.8%.

In the case of `N#Cc1nncn1CC(=O)Nc1ccc(C(F)(F)F)cc1`, the Inhibition % came to 26.2%.

As for `Cc1nn(C)c(C)c1B1OC(C)(C)C(C)(C)O1`, the Inhibition % is given as 2.29%.

As for `C=CC(=O)NCc1nnc2ccccn12`, the Inhibition % amounted to 13%.

In the case of `CS(=O)(=O)n1ccc(N)n1`, the Inhibition % came to 7.32%.

As to `Cc1ccc(F)cc1NC(=O)CCl`, the Inhibition % was 12.6%.

For `C=CC(=O)N1CCCN(C(=O)c2cccc(F)c2)CC1`, the Inhibition % is 2.43%.

In the case of `N#Cc1ccc(N2CCCC2)cn1`, the Inhibition % was 5.57%.
